Reference: PubChem BioAssay AID686978 (National Center for Advancing Translational Sciences (NCATS), 2013)
About 64,000 (15%) of roughly 420,000 compounds were called active. This list was built around the results that the source calls inconclusive (neither active nor inactive); the mix of calls is not that of the screen. Calls come from the whole dose curve; as a rule, active = well fitted inhibition curve with a large enough effect; inconclusive = small, poorly fitted or top-dose-only effect; inactive = flat fitted curve, though single readings scatter. No potency is given beside an inconclusive call; the fits are too rough.

Test: qHTS for Inhibitors of human tyrosyl-DNA phosphodiesterase 1 (TDP1): qHTS in cells in absence of CPT; note: nearly all actives have a fitted effect of over 55% in size
Settings: DT40 Tdp1-/- hTDP1 cells, no CPT, ATP luminescence, 48 h; activity change, negative = growth inhibition: at 46.2 µM (top of the series)
Summary of the method: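 Compound effects on proliferation are scored in DT40 Tdp1-/-;hTDP1 cells in the absence of CPT. ATP levels (CellTiter-Glo luminescence) are recorded after a ≥48 hr, 37 °C incubation.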
% is set by controls: 0 for no effect and ±100 for the full control effect; potency is the fitted concentration of half-maximal effect; tags give direction and shape of the fitted curve.

Structure (SMILES) | Potency | activity change, negative = growth inhibition
Cc1nn(C)c(C)c1/C=N/N=C1\CCC2C3CCc4cc(O)ccc4C3CCC12C (stereo unspecified) | active: 11.6 µM | 
CC(OC(=O)Cn1[nH]c(=O)c2ccccc2c1=O)C(=O)Nc1cccc(Cl)c1 (stereo unspecified) |  | inactive: -14%
COCCCn1c(SCC(=O)Nc2ccc(F)cc2)nc2c(sc3ccccc32)c1=O | active: 5.8 µM | 
Cc1ncnc(N)c1CCCNc1ccccc1 | inconclusive [inhibitor, single point] | 
O=C(O)C1CC(O)CN1c1nc(Cl)ccc1[N+](=O)[O-] (stereo unspecified) |  | inactive: -7.54%
COc1ccc(N=C2SC(CC(=O)Nc3cccc(Cl)c3)C(=O)N2Cc2ccco2)cc1 (stereo unspecified) | inconclusive [inhibitor, single point] | 
Cc1cc(N2C(=O)C(O)=C(C(=O)c3ccco3)C2c2ccc(Cl)cc2)no1 (stereo unspecified) | inconclusive [inhibitor, single point] | 
O=[N+]([O-])c1ccc(CSCc2ccc([N+](=O)[O-])cc2)cc1 |  | inactive: 8.11%
Cc1ccnc(Nc2nc3ccccc3o2)n1 | active: 20.6 µM | 
OCC[C@H]1C[C@H](O)[C@@H](O)[C@]2(CCc3ccccc3O2)O1 |  | inactive: -2.75%
O=C(c1ccc2c(c1)N(Cc1c(F)cccc1Cl)C(=O)c1ccccc1S2)N1CCCC1 | active: 23.1 µM | 
CCc1ccc(NC(=O)c2ccc(Cn3nc(N4CCN(c5ccccc5)CC4)ccc3=O)o2)cc1 | inconclusive [inhibitor, single point] | 
Cc1ccc(Cl)cc1-n1ncc2c(Nc3ccc4c(c3)OCCO4)ncnc21 | inconclusive [inhibitor, single point] | 
O=C(COc1ccc(Br)cc1)N1CCN(S(=O)(=O)/C=C/c2ccccc2)CC1 | inconclusive [inhibitor, single point] | 
Cc1ccc2nc(NC(=O)CN3C(=O)NC4(CCCCC4)C3=O)sc2c1 | inconclusive [inhibitor, single point] | 
COc1ccc(-c2cc(C(=O)N(C)CC(=O)Nc3ccccc3C(F)(F)F)c3ccccc3n2)cc1OC | active: 4.11 µM | 
NC(=O)C1CCN(c2ncnc3c(-c4ccccc4)nsc23)CC1 |  | inactive: -4.34%
COc1ccccc1OCCCn1c(=O)sc2ccccc21 | inconclusive [inhibitor, single point] | 
CC1(C(=O)O)CCC(C(N)=O)C1(C)C (stereo unspecified) |  | inactive: -0.567%
C[C@H]1CCC[C@]2(C)C[C@H]3OC(=O)C(CN4CCCCCC4)[C@H]3C=C12 (stereo partly specified) | inconclusive [inhibitor, single point] | 
c1ccn2cc(-c3ccc4c(c3)OCO4)cc2c1 | inconclusive [inhibitor, single point] | 
Cc1ccc2cc(CN(CCCN3CCOCC3)C(c3nnnn3Cc3ccco3)C(C)C)c(=O)[nH]c2c1C (stereo unspecified) | inconclusive [inhibitor, single point] | 
O=C1C(NS(=O)(=O)c2cccs2)=C(N2CCOCC2)C(=O)c2ccccc21 | inconclusive [inhibitor, single point] | 
COc1ccc(/C=C(\C#N)c2nc3ccc(C)cc3[nH]2)cc1Oc1ccc(C(F)(F)F)cc1[N+](=O)[O-] | active: 16.4 µM | 
COCCN(C(=O)c1cc(OC)c(OC)c(OC)c1)c1c(N)n(Cc2ccccc2)c(=O)[nH]c1=O |  | inactive: -9.69%
c1ccc(-c2nc(NCc3cccnc3)c3ccccc3n2)cc1 |  | inactive: -16.3%

Structure (SMILES) | Potency | activity change, negative = growth inhibition
CC(=O)N(CCC1(C(C)C)CCOC(C)(C)C1)C(C)c1cccs1 (stereo unspecified) | inconclusive [inhibitor, single point] | 
O=C(NCC(c1ccco1)N1CCN(c2ccccc2F)CC1)c1ccc2c(c1)OCO2 (stereo unspecified) | active: 18.4 µM | 
Cc1nn(-c2nc3ccccc3s2)c(C)c1Oc1ccccc1O |  | inconclusive: -35.2% [inhibitor]
N#C/C=C1/NC(=O)c2ccccc2S1 |  | inconclusive: -32.6% [inhibitor]
COc1ccc(CNCc2ccc3c(c2)OCO3)c(OC)c1OC | inconclusive [inhibitor, single point] | 
O=C(Nc1cccc2cccnc12)c1ccc(-c2cccc(Cl)c2)o1 | inconclusive [inhibitor, single point] | 
COc1ccc(-c2cc3ncc(C(=O)c4cc([N+](=O)[O-])ccc4O)cn3n2)cc1 | inconclusive [inhibitor, full curve] | 
COc1ccc(OC)c(NC(=O)c2sc3nc(C)cc(C)c3c2N)c1 | inconclusive [inhibitor, partial curve] | 
COc1ccc(CC(=O)Nc2cccc(S(=O)(=O)N3CCOCC3)c2)cc1OC | inconclusive [inhibitor, partial curve] | 
Cc1cc(C)n2nc(-c3cccnc3)nc2n1 |  | inactive: -11.7%
CCC(C)c1ccccc1OCC(=O)Nc1ccc(S(=O)(=O)Nc2cc(C)on2)cc1 (stereo unspecified) |  | inactive: -21.6%
CC1CCc2c(sc3nnn(CC(=O)Nc4c(C(C)C)cccc4C(C)C)c(=O)c23)C1 (stereo unspecified) | active: 14.6 µM | 
O=C(OCC(=O)N1CCCC1=O)c1ccc(O)cc1O |  | inactive: -19.8%
Cc1cc(C)cc(CC(Cc2nc3ccccc3[nH]2)c2nc3ccccc3[nH]2)c1 (stereo unspecified) | active: 25.9 µM | 
C=CCSc1n[nH]c(-c2ccc(OCCC)cc2)n1 | active: 16.4 µM | 
CC(C)c1ccc(C(=O)COC(=O)C(O)c2ccccc2)cc1 (stereo unspecified) |  | inactive: -21%
CN(C)n1cccc1/C=C(\C#N)S(=O)(=O)c1ccc(Cl)cc1 | inconclusive [inhibitor, single point] | 
Cc1cc(Cl)ccc1OC(C)C(=O)Nc1ccc(C(=O)Nc2ccccc2C(=O)O)cc1 (stereo unspecified) | inconclusive [inhibitor, partial curve] | 
CC(=O)N1N=C(c2ccccc2OC(=O)/C=C/c2ccccc2)CC1c1ccccc1 (stereo unspecified) | inconclusive [inhibitor, single point] | 
Cc1csc(NC(=O)CSc2nc(=O)n(CCN(C)C)c3c2CCCC3)n1 |  | inactive: -6.08%
O=C(c1ccc(Br)cc1)N1CCC(C(=O)N2CCN(Cc3ccccc3)CC2)CC1 | inconclusive [inhibitor, single point] | 
CN1CCc2c(sc3nc(SCC(=O)N4CCCCC4)n(-c4ccccc4)c(=O)c23)C1 |  | inactive: -25.6%
CCCn1c2ccccc2c2cnn(CC(=O)NCCCN(CC)c3ccccc3)c(=O)c21 | inconclusive [inhibitor, single point] | 
O=C(Nc1ncccc1O)c1ccc(S(=O)(=O)Nc2ccccc2)cc1 | active: 5.17 µM | 
O=C(Nc1ncc(Cc2ccccc2Cl)s1)c1ccc(-c2cccc([N+](=O)[O-])c2)o1 | inconclusive [inhibitor, single point] | 
Cc1onc(-c2c(F)cccc2Cl)c1C(=O)Nc1cccc2nsnc12 | active: 3.66 µM | 

Structure (SMILES) | Potency | activity change, negative = growth inhibition
c1ccc(-c2nnsc2-c2ccccc2)cc1 |  | inactive: 20.2%
COc1ccc([C@H]2CC(=O)C=C(c3ccc(O)cc3)C2)cc1OC | active: 20.6 µM | 
Cc1ccc(-n2cc(CN(C)Cc3nccn3C)c(-c3ccc(F)cc3)n2)cc1 | inconclusive [inhibitor, single point] | 
COc1ccc(CNC(=O)Cc2cn(C)c3ccccc23)c(OC)c1 |  | inactive: -20.3%
Cc1sc2ncnc(-n3cnc4ccccc43)c2c1C | inconclusive [inhibitor, partial curve] | 
Cc1nn(Cc2ccccc2)c(C)c1C(=O)NCCN1C(=O)S/C(=C\c2ccccc2)C1=O | inconclusive [inhibitor, partial curve] | 
C/C(=N\NC(=S)NC(C)C)c1ccccc1OC(F)F | active: 3.26 µM | 
O=C(Nc1sc2c(c1C(=O)NCC1CCCO1)CCC2)c1cc(=O)c2cc(Cl)ccc2o1 (stereo unspecified) | inconclusive [inhibitor, partial curve] | 
CCc1nnc(NC(=O)c2cccc(S(=O)(=O)N3CCN(c4ccccc4)CC3)c2)s1 |  | inactive: -6.12%
COc1ccc(-c2csc3ncnc(N4CCN(c5ccccc5[N+](=O)[O-])CC4)c23)cc1 | active: 18.4 µM | 
O=C(CN1CCN(S(=O)(=O)c2ccc3c(c2)OCCO3)CC1)Nc1ccccc1Br | inconclusive [inhibitor, single point] | 
CCOC(=O)c1cc(-c2ccccc2)n(CC(=O)Nc2ccccc2OCC)c1C | active: 9.2 µM | 
COc1ccc(C)cc1NC(=O)CN(c1ccc(F)cc1)S(C)(=O)=O |  | inactive: -2.24%
CCOC(=O)c1cnc(-n2nc(C)cc2C)nc1NC | inconclusive [inhibitor, single point] | 
O=C(c1ccc(COc2c(F)c(F)cc(F)c2F)o1)N1CCN(c2ccccc2)CC1 | active: 11.6 µM | 
CC(CCC(=O)O)C1CCC2C3CC(O)[C@@H]4CC(O)CC[C@]4(C)C3CC[C@@]12C (stereo partly specified) |  | inactive: -9.16%
CCCC(=O)NCCc1nc2ccccc2n1CCC |  | inactive: -28.9%
Cc1ccccc1OS(=O)(=O)c1cccc([N+](=O)[O-])c1 |  | inactive: -27.5%
O=c1[nH]c2ccccc2s1 |  | inactive: -20.8%
O=C1OC2(c3ccccc31)c1ccccc1-c1ccccc12 | inconclusive [inhibitor, single point] | 
Cc1cc(C)c(C(=O)Nc2ccc(Br)c(C(F)(F)F)c2)c(C)c1 | active: 11.6 µM | 
O=C(Oc1cccccc1=O)c1ccccc1 | active: 20.6 µM | 
COc1ccc2c(c1)/C(=C\c1cccc(/C=C3/C(=O)Nc4ccc(OC)cc43)n1)C(=O)N2 | active: 1.84 µM | 
Cc1ccc(CCNC(=O)c2ccc3c(c2)N(Cc2ccccc2F)C(=O)c2ccccc2S3=O)cc1 (stereo unspecified) | inconclusive [inhibitor, partial curve] | 
